Source: PubChem BioAssay AID463173 (ICCB-Longwood Screening Facility, Harvard Medical School, 2010)
Out of some 52,000 compounds screened, about 1,700 (3.3%) were called active. No stated cut-off is given here; in the data, active means survival mostly below about 52% (no sharp cut-off); inactive means mostly above about 56%. The list shows a part of the results.

system: Wild type; experiment: growth inhibition of S. aureus wild type versus tarO mutant, primary screen, teichoic acid synthesis inhibitors, RN4220, OD600 (AID 463173); conditions: S. aureus RN4220 wild type/DeltatarO growth, OD600, 18 h, active compounds read low, screened at 18.75 µg/mL (by protocol)

Compound	survival
Cn1c(=O)n(C)c2cc(/C=N/NC(N)=S)ccc21	inactive: 92%
COc1ccc(-c2cn3c(n2)sc2cc(C(=O)Nc4c(C)cccc4C)ccc23)cc1	inactive: 83%
Cc1cc2cc3c(cc2nc1SCC(=O)N1CCCC1)OCCO3	inactive: 105%
CCCCC(=O)Nc1cc(-c2nc3cccnc3s2)ccc1C	inactive: 72%
CN(C)N=Nc1ccc(Oc2ccccc2)cc1	inactive: 115%
CCc1ccc(NC(=O)c2cc3c(COC(C)=O)cnc(C)c3oc2=O)cc1	inactive: 120%
CCOc1ccc(NC(=O)CSc2ncnc3c2sc2ccccc23)cc1	inactive: 71%
CN(C)S(=O)(=O)c1ccc(C(=O)Nc2c(C(=O)Nc3ccc(F)cc3)oc3ccccc23)cc1	inactive: 88%
COc1ccc(C(=O)n2nc(-c3ccc(Cl)cc3)nc2NCc2ccco2)cc1	inactive: 99%
Cn1c(=O)oc2cc(S(=O)(=O)N3CCCC(C(=O)NCc4ccccc4Cl)C3)ccc21 (stereo not drawn)	inactive: 96%
COc1ccc(NC(=O)Cn2c(=O)oc3cc(Cl)ccc32)c(OC)c1	inactive: 63%
CNC(=O)C1CCC(Cn2c(=O)c3sccc3n(CC(=O)NCc3ccc(C)cc3)c2=O)CC1 (stereo not drawn)	inactive: 73%
Cc1cc(C)c2c(n1)SCC(=O)N2CC(=O)Nc1ccccc1C	inactive: 77%
Cc1ccc(C)c(NC(=O)CCCn2c(C)c3cnn(-c4ccccc4)c(=O)c3c2C)c1	inactive: 83%
CCc1ccc(NC(=O)CSc2nc(C)c(C(=O)Nc3ccc(Cl)cc3)c(-c3ccc(OC)cc3)c2C#N)cc1	inactive: 94%
Nc1ccc(N2CCOCC2)c2nonc12	inactive: 106%
Cc1cc(=O)oc2cc(OCC(=O)N(C)C)c(Cl)cc12	inactive: 109%
O=C(CSc1nc2c([nH]c3ccccc32)c(=O)n1-c1ccc(F)cc1)NCC1CCCO1 (stereo not drawn)	inactive: 70%
Cc1ccc(C2C(=O)N(C3CCCCCC3)CC(=O)N2C(C)C)cc1 (stereo not drawn)	inactive: 71%
Cc1ccccc1C(=O)Nc1sc2c(c1C(=O)O)CCC(C(C)(C)C)C2 (stereo not drawn)	active: 6%

Compound	survival
O=C(CSc1nc2c([nH]c3ccccc32)c(=O)n1-c1ccccc1)N1CCCc2ccccc21	inactive: 128%
COc1ccc(NC(=O)Cn2nc3c(cc2=O)CCCC3)cc1Cl	inactive: 95%
CCCCc1nn2c(=O)cc(CN(CC)c3ccccc3)nc2s1	inactive: 89%
COc1cccc(C(=O)c2cn(CC(=O)Nc3cc(Cl)c(OC)cc3OC)c3nc(C)ccc3c2=O)c1	inactive: 136%
O=C(CSc1ccccc1)N1CCc2c([nH]c3ccccc23)C1c1ccc(Cl)cc1 (stereo not drawn)	inactive: 64%
Cc1cccc(NC(=O)c2cc(CN3CCOCC3)on2)c1C	inactive: 68%
Cc1cccc(S(=O)(=O)c2cn(C)c3cc(N4CCCCCC4)c(F)cc3c2=O)c1	inactive: 55%
O=C(NCc1ccc(Cl)cc1)c1cc2ccc3cccnc3c2[nH]1	inactive: 49%
COc1ccccc1N1CCN(S(=O)(=O)c2ccc(-c3ccno3)cc2OC)CC1	inactive: 82%
Cc1ccc(NC(=O)NCCOCCn2c(=O)oc3ccccc32)c(C)c1	inactive: 88%
CC(C)c1ccc(Cc2cn3cc(-c4cc5ccccc5oc4=O)nc3s2)cc1	inactive: 64%
COc1cccc(-n2c(SCC(=O)Nc3cccc(C)c3)nc3c([nH]c4ccccc43)c2=O)c1	inactive: 80%
Cc1nc(N2CCCC2)ncc1C(=O)NCc1ccc(Cl)cc1	inactive: 80%
CC1=C(c2ccc(F)cc2)S(=O)(=O)N=C1N1CCC(C(=O)NCCc2ccccc2)CC1	inactive: 77%
COc1ccc(OC)c(C2=NS(=O)(=O)N(C)C(C(=O)Nc3ccc(C(C)=O)cc3)=C2)c1	inactive: 81%
Cc1ccccc1C(=O)NC1CCN(CC(=O)NC2CCCCC2)CC1	inactive: 98%
O=C(Cn1nnc(-c2cccnc2)n1)N(c1ccccc1)c1ccccc1	inactive: 101%
COc1cc(CN(C(=O)COc2ccc(Cl)cc2)c2ccccn2)cc(OC)c1OC	inactive: 104%
Cc1ccc(C)c(NC(=O)C2CCN(c3ncnc4c3nc3n4CCCCC3)CC2)c1	inactive: 81%
CC(C)(C)c1ccc(C(=O)NNc2ncnc3c2cnn3-c2ccc(Cl)cc2)cc1	inactive: 94%

Compound	survival
Cc1cccc(C)c1NC(=O)NCCCN1CCN(c2ccccc2)CC1	inactive: 159%
CCc1ccc2occ(CC(=O)Nc3nnc(C)s3)c2c1	inactive: 98%
CCNC(=O)C1CCN(c2nc3ccccc3nc2C(F)(F)F)CC1	inactive: 148%
O=C(CSc1nc2c([nH]c3ccccc32)c(=O)n1-c1ccccc1)NCc1ccc(F)cc1	inactive: 87%
CCc1ccccc1NC(=O)CC(C)S(=O)(=O)c1ccc2c(c1)NC(=O)CO2 (stereo not drawn)	inactive: 59%
COc1ccccc1-c1cc(-c2ccc(O)cc2)nc(N)c1C#N	inactive: 69%
CC(=O)c1nn(-c2ccc(OC(F)(F)F)cc2)nc1Nc1ccc(Cl)cc1	inactive: 88%
CCOc1ccc(NC(=O)Cn2cc(S(=O)(=O)c3ccc(C)cc3)c(=O)c3cc(F)ccc32)cc1	inactive: 64%
O=C(CN1C(=O)C2(SCC(=O)N2c2ccccc2)c2ccccc21)Nc1ccccc1C(F)(F)F (stereo not drawn)	inactive: 140%
COc1ccc(C(=O)c2cnc3ccc(C)cc3c2S(=O)(=O)c2ccccc2)cc1	inactive: 79%
COc1ccc(S(=O)(=O)N2CCC(C(=O)NC(C)c3ccccc3)CC2)cc1 (stereo not drawn)	inactive: 83%
CCOC(=O)C1CCCN(C(=O)Cn2c(=O)cc(C)c3c(C)nn(C)c32)C1 (stereo not drawn)	inactive: 72%
Cc1ccc(CN2C(=O)C(O)(CC(=O)c3ccc(C)cc3)c3ccccc32)cc1 (stereo not drawn)	inactive: 66%
O=c1sc2ccccc2c2nc[nH]c12	inactive: 98%
C#CCN1CCOCC1	inactive: 111%
O=C(Nc1ccc(Br)cc1)c1cc2nc(-c3ccccc3)cc(-c3ccccc3)n2n1	inactive: 74%
COc1ccc(CCNc2oc(-c3ccc(C)cc3)nc2C#N)cc1OC	inactive: 106%
CCOc1ccc(-c2nnc(SCC(=O)NCc3ccc(Cl)cc3)o2)cc1	inactive: 98%
